# Test results: the supplement of paper PMC8728848
# The other results are listed elsewhere or left out.
# B1: Gal 3 (Homo sapiens), P17931 (protein)
# chain: MADNFSLHDALSGSGNPNPQGWPGAWGNQPAGAGGYPGASYPGAYPGQAPPGAYPGQAPPGAYHGAPGAYPGAPAPGVYPGPPSGPGAYPSSGQPSAPGAYPATGPYGAPAGPLIVPYNLPLPGGVVPRMLITILGTVKPNANRIQLDFQRGNDVAFHFNPRFNENNRRVIVCNTKLDNNWGREERQSVFPFESGKPFKIQVLVEPDHFKVAVNDAHLLQYNHRVKKLNEISKLGISGDIDLTSASYTMI
# Columns and labels:
# Experiment in all cases: glycan array binding signal (z-score within array); higher = stronger binding
# Conditions in all cases: glycan notation: IUPAC condensed, linker removed; mutation: A146Q
# [1] = target: Fuc(a1-2)Gal(b1-4)GlcNAc6S
# In short: (§1)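 Columns mapping to the same glycan were averaged after glycan names were converted to IUPAC-condensed notation. The data come from 3228 arrays in the Consortium for Functional Glycomics database, limited to those with an available protein sequence. Binding is reported as a within-array Z-score averaged across arrays of one protein sequence and across linkers.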
# [2] = target: Fuc(a1-2)Gal(b1-4)[Fuc(a1-3)]GlcNAc
# In short: as §1
# [3] = target: Fuc(a1-2)Gal(b1-4)[Fuc(a1-3)]GlcNAc(b1-2)Man(a1-3)[Fuc(a1-2)Gal(b1-4)[Fuc(a1-3)]GlcNAc(b1-2)Man(a1-6)]Man(b1-4)GlcNAc(b1-4)GlcNAc
# In short: as §1
# [4] = target: Fuc(a1-2)Gal(b1-4)[Fuc(a1-3)]GlcNAc(b1-3)Gal(b1-4)[Fuc(a1-3)]GlcNAc
# In short: as §1
# [5] = target: Fuc(a1-2)Gal(b1-4)[Fuc(a1-3)]GlcNAc(b1-3)Gal(b1-4)[Fuc(a1-3)]GlcNAc(b1-3)Gal(b1-4)[Fuc(a1-3)]GlcNAc
# In short: as §1
# Fuc(a1-2)Gal6S(b1-4)Glc = target: Fuc(a1-2)Gal6S(b1-4)Glc
# In short: as §1
# [6] = target: Fuc(a1-2)Gal6S(b1-4)Glc6S
# In short: as §1
# [7] = target: Fuc(a1-2)Gal6S(b1-4)GlcNAc
# In short: as §1
# Fuc(a1-2)[Gal(a1-3)]Gal = target: Fuc(a1-2)[Gal(a1-3)]Gal
# In short: as §1
# [8] = target: Fuc(a1-2)[Gal(a1-3)]Gal(b1-3)GlcNAc
# In short: as §1
# [9] = target: Fuc(a1-2)[Gal(a1-3)]Gal(b1-3)GlcNAc(b1-2)Man(a1-3)[Fuc(a1-2)[Gal(a1-3)]Gal(b1-3)GlcNAc(b1-2)Man(a1-6)]Man(b1-4)GlcNAc(b1-4)GlcNAc
# In short: as §1
# [10] = target: Fuc(a1-2)[Gal(a1-3)]Gal(b1-4)Glc
# In short: as §1
# [11] = target: Fuc(a1-2)[Gal(a1-3)]Gal(b1-4)GlcNAc
# In short: as §1
# [12] = target: Fuc(a1-2)[Gal(a1-3)]Gal(b1-4)GlcNAc(b1-2)Man(a1-3)[Fuc(a1-2)[Gal(a1-3)]Gal(b1-4)GlcNAc(b1-2)Man(a1-6)]Man(b1-4)GlcNAc(b1-4)GlcNAc
# In short: as §1
# [13] = target: Fuc(a1-2)[Gal(a1-3)]Gal(b1-4)[Fuc(a1-3)]GlcNAc
# In short: as §1
# [14] = target: Fuc(a1-2)[Gal(a1-4)]Gal(b1-4)GlcNAc
# In short: as §1
# [15] = target: Fuc(a1-2)[GalNAc(a1-3)]Gal
# In short: as §1
# [16] = target: Fuc(a1-2)[GalNAc(a1-3)]Gal(b1-3)GalNAc(a1-3)[Fuc(a1-2)]Gal(b1-4)GlcNAc
# In short: as §1
# [17] = target: Fuc(a1-2)[GalNAc(a1-3)]Gal(b1-3)GlcNAc
# In short: as §1
# [18] = target: Fuc(a1-2)[GalNAc(a1-3)]Gal(b1-3)GlcNAc(b1-2)Man(a1-3)[Fuc(a1-2)[GalNAc(a1-3)]Gal(b1-3)GlcNAc(b1-2)Man(a1-6)]Man(b1-4)GlcNAc(b1-4)GlcNAc
# In short: as §1
# [19] = target: Fuc(a1-2)[GalNAc(a1-3)]Gal(b1-4)Glc
# In short: as §1
# [20] = target: Fuc(a1-2)[GalNAc(a1-3)]Gal(b1-4)GlcNAc
# In short: as §1
# [21] = target: Fuc(a1-2)[GalNAc(a1-3)]Gal(b1-4)GlcNAc(b1-2)Man(a1-3)[Fuc(a1-2)[GalNAc(a1-3)]Gal(b1-4)GlcNAc(b1-2)Man(a1-6)]Man(b1-4)GlcNAc(b1-4)GlcNAc
# In short: as §1
binder,measurement,setting,value
B1,glycan array binding signal (z-score),[1],0.163
same,glycan array binding signal (z-score),[2],-0.199
same,glycan array binding signal (z-score),[3],-0.171
same,glycan array binding signal (z-score),[4],-0.201
same,glycan array binding signal (z-score),[5],-0.166
same,glycan array binding signal (z-score),Fuc(a1-2)Gal6S(b1-4)Glc,-0.201
same,glycan array binding signal (z-score),[6],-0.194
same,glycan array binding signal (z-score),[7],-0.19
same,glycan array binding signal (z-score),Fuc(a1-2)[Gal(a1-3)]Gal,-0.199
same,glycan array binding signal (z-score),[8],3.36
same,glycan array binding signal (z-score),[9],9.93
same,glycan array binding signal (z-score),[10],2.81
same,glycan array binding signal (z-score),[11],3.94
same,glycan array binding signal (z-score),[12],10.3
same,glycan array binding signal (z-score),[13],-0.187
same,glycan array binding signal (z-score),[14],-0.19
same,glycan array binding signal (z-score),[15],-0.167
same,glycan array binding signal (z-score),[16],-0.199
same,glycan array binding signal (z-score),[17],-0.178
same,glycan array binding signal (z-score),[18],-0.197
same,glycan array binding signal (z-score),[19],-0.195
same,glycan array binding signal (z-score),[20],-0.199
same,glycan array binding signal (z-score),[21],-0.192
